Results published in PubChem BioAssay AID1508623 (National Center for Advancing Translational Sciences (NCATS), 2021).
Hit rate of the full screen: of about 48,000 compounds, about 450 (0.94%) were called active. Another 19% or so got no clear call; they are omitted. Calls follow the shape of the dose curve; as a rule, active = well fitted inhibition curve with a large enough effect; inconclusive = small, poorly fitted or top-dose-only effect; inactive = no such curve, though single readings can be large or run the other way. This is one part of the list.

Experiment: Primary qHTS for Identification of Small Molecule Inhibitors of Huntingtin Promoter Activity; also: nearly all actives have a fitted effect of over 50% in size
Settings: HEK293 HTT promoter firefly luciferase reporter (activity 0% = vehicle and -100% = no light), 24 h; series mostly up to 57.5 µM; activity change, negative = inhibition: at the top concentration
Procedure, shortened: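 Firefly luciferase readout (Dual-Glo, 10 min RT) after 24 h, 37 °C compound exposure (final up to 57.5 uM) of HEK293 reporter cells cultured 24 h beforehand; PTC124 at 50 uM final as control inhibitor; activity scaled vehicle 0%, zero RLU -100%.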
Potency is read from the fitted curve at half-maximal effect.

Activity change, negative = inhibition, inactive:
CCOc1ccccc1NC(=O)CSc1nc2ccccc2nc1Cc1ccc(C)cc1 -27.2%, CCOC(=O)[C@H](CCc1ccccc1)N[C@H]1CCc2ccccc2N(CC(=O)O)C1=O, CC(=O)c1ccc(NC(=O)c2sc(-n3nc(C)c(CCC(C)C)c3C)nc2C)cc1 -14.8%, CC(=O)Nc1ccc(NC(=O)CCc2c(C)nc3c(c(C)nn3-c3ccc(C)cc3)c2C)cc1 -7.29%, CC(=O)Nc1ccccc1-c1nc2ccccc2n(C(C)C(=O)Nc2cc(Cl)ccc2C)c1=O (stereo not drawn) -8.77%, CCN(CC)S(=O)(=O)c1nnc(NC(=O)COc2ccc(C)cc2)s1 -17.4%, Cc1ccc(C)c(NC(=O)CSc2nnc(CNC(=O)c3ccccc3)n2-c2ccccc2)c1 -12.7%, CCOc1ccc(NC(=O)c2ccc(CN3C(=O)C(C)=C(c4ccc(C)cc4)S3(=O)=O)cc2)cc1 7.63%, CCC(=O)Nc1ccccc1-c1nc2ccccc2n(Cc2cccc(Br)c2)c1=O -0.229%, Cn1c(=O)c2sccc2n2c(CCCC(=O)Nc3ccc(Cl)cc3)nnc12 -1.46%, CC(C)n1c(/C=C/[C@@H](O)C[C@@H](O)CC(=O)O)c(-c2ccc(F)cc2)c2ccccc21 8.13%, COc1ccc(CN2CCCN(CC(=O)Nc3cc(C)ccc3C)S2(=O)=O)cc1 -21.5%, CCOC(=O)c1c(C)oc2nc(C)nc(Nc3cc(C)cc(C)c3)c12 4.5%, COc1ccc(-c2cc(OC(=O)c3ccccc3C)c3c(C)oc(C)c3c(=O)c2)cc1 28.2%, O=C(CSc1nc2ccccc2n1Cc1ccc(F)cc1)N1CCN(c2ccc(F)cc2)CC1 -0.386%, Cc1csc2nc(COC(=O)c3ccc(F)cc3)cc(=O)n12 -23.6%, Cc1cccc(N(CC(=O)NCc2ccccc2)S(C)(=O)=O)c1C -12.4%, Cc1ccc(C)c(NC(=O)Cn2cnc3c(oc4ccccc43)c2=O)c1 -7%, Cc1nnc(N2CCC(C(=O)NCCc3ccccc3)CC2)c2nn(-c3ccccc3)c(C)c12 -20.1%, CCc1ccc(-c2nc(CN3CCC(C(=O)NCCc4ccc(C)cc4)CC3)c(C)o2)cc1 -1.36%, COc1ccc(NC(=O)C(c2ccccc2)N2Cc3ccccc3C2=O)cc1 (stereo not drawn) -24.7%, Cc1cc(C)c2c(=O)cc(C(=O)Nc3ccc(C)c(Cl)c3)oc2c1 -3.63%, CCOC(=O)Cn1c(C2CC(=O)N(c3ccc(C)cc3)C2)nc2ccccc21 (stereo not drawn) -14.1%, CCC(=O)N1c2ccccc2CC1C(=O)NCCc1ccc(SC)cc1 (stereo not drawn) -2.59%, Cc1ccccc1OCCn1cc(C(=O)C2CCCCC2)c2ccccc21 -3.26%, Cc1ccc(C)c(N2CCN(C(=O)Cn3cnc4sc(C)c(S(=O)(=O)N5CCN(c6ncccn6)CC5)c4c3=O)CC2)c1 -17.6%, CCNC(=O)N1CCN(CCCC(c2ccc(F)cc2)c2ccc(F)cc2)CC1 -16.9%, O=[N+]([O-])c1ccc(C(c2sc3nc(-c4ccco4)nn3c2O)N2CCN(Cc3ccccc3)CC2)cc1 (stereo not drawn) 0%, CCOC(=O)c1c(C)[nH]c(C)c1S(=O)(=O)NCC(=O)Nc1cc(Cl)ccc1OC -16.8%, CC(C)C[C@H](CC(=O)O)C(=O)N[C@@H](Cc1c[nH]c2ccccc12)C(=O)N[C@@H](C)c1ccccc1 -0.819%, CC(=O)c1ccc(NC(=O)COc2ccccc2-c2nc(C(C)C)no2)cc1 0.608%, CCOC(=O)C1CCN(S(=O)(=O)c2cc(-c3cc(C)no3)ccc2OC)CC1 -25%, O=C(COc1ccccc1)Nc1nnc2n1CCS2 6.86%, Cc1ccc(NC(=O)C(Cc2ccccc2)NS(=O)(=O)c2ccc3c(c2)oc(=O)n3C)cc1C (stereo not drawn) -16%, CC(C)(C)C(=O)Cn1c(=O)n(CCCCCC(=O)NCc2ccccc2Cl)c(=O)c2sccc21 -28.3%, COc1cc(OC)cc(-c2nc3nc(C)c(CCC(=O)Nc4ccccc4)c(C)n3n2)c1 -10.2%, CC(=O)c1ccc(N2CCN(C(=O)Nc3cn(CC(C)C)c(=O)c4ccccc34)CC2)cc1 2.15%, Cc1ccc(C)c(NC(=O)CSc2nnc(NC(=O)Nc3ccccc3)s2)c1 -8.06%, CCN1CCN(Cc2nc3cc(NC(=O)c4cccc([N+](=O)[O-])c4)ccc3n2CC)CC1 -7.36%, CCc1ccc(NC(=O)Cn2c(C(=O)OC)cc3oc(C)cc32)cc1 -26.9%, CCCCCCC(=O)Nc1cc2nc3c(nc2cc1C)c(=O)n(C)c(=O)n3C 11.4%, CCc1ccc(C2CC(=O)c3c([nH]c(C(=O)OC4CCCCCC4)c3C)C2)cc1 (stereo not drawn) -3.68%, COc1ccc(NC(=O)CN2CCN(C3CCCCC3)C(=O)C2=O)cc1 0.748%, CCOC(=O)c1c(-c2ccc(Br)cc2)csc1NC(=O)c1ccc(C(C)(C)C)cc1 -11.1%, Cc1ccc(CNC(=O)c2cc(=O)c3cc(C)c(C)cc3o2)cc1 -10.6%, CC1CCCCN1Cc1c(O)ccc2c(=O)c(-c3ccc(Cl)cc3)coc12 (stereo not drawn) 29.5%, COc1ccc(NC(=O)c2cc(=O)c3cc(C)cc(C)c3o2)cc1 5.11% [at 11.5 µM]

Potency, active:
Cc1nc2c(-c3ccccc3)c(C)[nH]n2c(=O)c1Cc1ccc(Br)cc1 12.6 µM
